Test results as given in the supplement of paper PMC10670038.
Where “and” joins values, the source holds several entries; their conditions need not be identical. Identical values can stand only once. Counter-ions that a name gives are not always drawn. ± gives the standard deviation of the averaged measurements. Over roughly 2,000 compounds, “relative cell viability vs DMSO, compound + 0.2 uM CuET” has its median near 1; the lowest 2% begin near 0.25. The list shows a part of the results.

The compounds below were run on TE10 (assay: relative cell viability vs DMSO, compound + 0.2 uM CuET (fraction); TE10 is an esophageal squamous carcinoma line; higher = less cytotoxic). Conditions: 2 µM; co-treatment: CuET (bis(diethyldithiocarbamate)copper) 0.2 uM; 48 h.
Experimental: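 TE10 ESCC cells (1,000/well, 384-well plates) were treated with Selleck bioactive library compounds at 2 uM combined with 0.2 uM CuET (copper diethyldithiocarbamate) for 48 h. Viability was read by CellTiter-Glo and expressed relative to DMSO wells. Two technical replicates (A, B).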

**Q.** With `Cc1ccc(Sc2cncc3sc(C(N)=O)cc23)cc1` as the compound, how does the relative cell viability read?
**A.** 1.06 ± 0.085

**Q.** `Cc1cnc(NC(=O)Nc2cc(Br)c(C)cc2OC[C@@H]2CNCCO2)cn1` was tested. Which relative cell viability did it give?
**A.** 0.643 ± 0.043

**Q.** For `COc1cccc(-c2cc(F)ccc2C2Cc3nc(N)nc(C)c3C(=O)N2)n1` (centres undefined), which relative cell viability is on record?
**A.** 0.704 ± 0.034

**Q.** For `O=c1cc(N2CCOCC2)oc2c(-c3ccccc3)cccc12`, which relative cell viability is on record?
**A.** 1.073 ± 0.0058

**Q.** How did the relative cell viability turn out when `CCCCC(=O)N(Cc1ccc(-c2ccccc2-c2nnn[nH]2)cc1)[C@H](C(=O)O)C(C)C` [Valsartan] was run?
**A.** 1.08 ± 0.029

**Q.** With `COc1cc(Nc2ncc3c(n2)-c2ccc(Cl)cc2C(c2c(F)cccc2OC)=NC3)ccc1C(=O)O` [Alisertib (MLN8237)] as the compound, how does the relative cell viability read?
**A.** 1.17 ± 0.23

**Q.** With `CCc1ccc(/C=C2/SC(=S)NC2=O)cc1` as the compound, how does the relative cell viability read?
**A.** 1.15 ± 0.12

**Q.** Which relative cell viability does the source give for `Cc1ccc(Nc2nccc(N(C)c3ccc4c(C)n(C)nc4c3)n2)cc1S(N)(=O)=O` [Pazopanib HCl] here?
**A.** 1.27 ± 0.12

**Q.** For `Cc1ccc(Nc2nccc(N(C)c3ccc4c(C)n(C)nc4c3)n2)cc1S(N)(=O)=O` [Pazopanib], which relative cell viability is on record?
**A.** 0.583 ± 0.59

**Q.** Which relative cell viability does the source give for `OCC(CO)N[C@H]1C[C@](O)(CO)[C@@H](O)[C@H](O)[C@H]1O` [Voglibose] here?
**A.** 1.12 ± 0.13

**Q.** `O=C(NNc1nc2cc(F)ccc2n2cccc12)c1cnccn1` was tested. Which relative cell viability did it give?
**A.** 1 ± 0.013

**Q.** How did the relative cell viability turn out when `CCCCCCCCCCCCCCCc1cccc(O)c1C(=O)O` [Anacardic Acid] was run?
**A.** 1.26 ± 0.019

**Q.** How did the relative cell viability turn out when `CC(C)c1cc(C(C)C)c(CC(=O)NS(=O)(=O)Oc2c(C(C)C)cccc2C(C)C)c(C(C)C)c1` [Avasimibe] was run?
**A.** 1.03 ± 0.13

**Q.** `COC(=O)/C=C/C(=O)OC` [Dimethyl Fumarate] was tested. Which relative cell viability did it give?
**A.** 1.17 ± 0.053

**Q.** How did the relative cell viability turn out when `O=C(NC(Cc1cc(=O)[nH]c2ccccc12)C(=O)O)c1ccc(Cl)cc1` (centres undefined) [Rebamipide] was run?
**A.** 1.18 ± 0.056

**Q.** How did the relative cell viability turn out when `CC1(C)CC[C@]2(NC(=O)C(C)(F)F)CC[C@]3(C)[C@H](C(=O)C=C4[C@@]5(C)C=C(C#N)C(=O)C(C)(C)[C@@H]5CC[C@]43C)[C@@H]2C1` [Omaveloxolone (RTA-408)] was run?
**A.** 0.822 ± 0.016

**Q.** Which relative cell viability does the source give for `CCOC(=O)c1ccc(NC2CCCCC2)c(N)c1` [Ferrostatin-1 (Fer-1)] here?
**A.** 1.188 ± 0.011

**Q.** For `O=C1c2c(O)ccc(O)c2C(=O)c2c(NCCNCCO)ccc(NCCNCCO)c21` [Mitoxantrone HCl], which relative cell viability is on record?
**A.** 0.699 ± 0.0095

**Q.** `O=C1c2c(O)ccc(O)c2C(=O)c2c(NCCNCCO)ccc(NCCNCCO)c21` [Mitoxantrone] was tested. Which relative cell viability did it give?
**A.** 0.6073 ± 0.0024

**Q.** How did the relative cell viability turn out when `CCOC(=O)C1=C(C)NC(C)=C(C(=O)OC)C1c1cccc(Cl)c1Cl` (centres undefined) [Felodipine] was run?
**A.** 1.05 ± 0.044

**Q.** `CN1CCN(Cc2ccc(-c3cnc4[nH]cc(-c5ccc6[nH]ccc6c5)c4c3)cc2)CC1` was tested. Which relative cell viability did it give?
**A.** 1.08 ± 0.06

**Q.** How did the relative cell viability turn out when `CCCCCCCCOc1ccccc1C(=O)Nc1ccc(C(=O)OCC[N+](C)(CC)CC)cc1` [Otilonium Bromide] was run?
**A.** 1.18 ± 0.35

**Q.** How did the relative cell viability turn out when `CN1CCCN(C(=O)c2cccc(-c3ccc(/C=C4/C(=O)Nc5ccc(Cl)cc54)o3)c2)CC1` was run?
**A.** 0.6144 ± 0.005

**Q.** `CN1CCN2c3ccccc3Cc3ccccc3C2C1` (centres undefined) [Mianserin HCl] was tested. Which relative cell viability did it give?
**A.** 0.988 ± 0.26

**Q.** How did the relative cell viability turn out when `CCCCc1ncc(/C=C(\Cc2cccs2)C(=O)O)n1Cc1ccc(C(=O)O)cc1` [Eprosartan Mesylate] was run?
**A.** 1.27 ± 0.057

**Q.** `O=C(Nc1ccccc1)N1CCN(c2nc(-c3ccccc3)ns2)CC1` was tested. Which relative cell viability did it give?
**A.** 1.17 ± 0.11

**Q.** For `CC(CNC(=O)c1cccnc1)NC(=O)c1cccnc1` (centres undefined) [Nicaraven], which relative cell viability is on record?
**A.** 1.17 ± 0.093

**Q.** With `Clc1cccc(CN=C2Nc3ccccc3NC23CCNCC3)c1` [Liproxstatin-1] as the compound, how does the relative cell viability read?
**A.** 0.905 ± 0.17

**Q.** `Cn1nc(C(C)(C)C)cc1C(=O)N[C@@H](Cc1cccc(Cl)c1)C(=O)NCC#N` [Cathepsin Inhibitor 1] was tested. Which relative cell viability did it give?
**A.** 1.22 ± 0.32

**Q.** With `CN(C)CCc1c[nH]c2ccc(CS(=O)(=O)N3CCCC3)cc12` [Almotriptan Malate] as the compound, how does the relative cell viability read?
**A.** 0.938 ± 0.0096

**Q.** `CCc1ccc(OCc2ccccc2C(=O)Nc2ccc3nc(C)cc(N)c3c2)cc1` was tested. Which relative cell viability did it give?
**A.** 0.256 ± 0.014

**Q.** Which relative cell viability does the source give for `CN(c1ncccc1CNc1nc(Nc2ccc3c(c2)CC(=O)N3)ncc1C(F)(F)F)S(C)(=O)=O` here?
**A.** 0.746 and 0.834 and 0.864

**Q.** With `O=c1[nH]c(=O)n([C@H]2C[C@H](O)[C@@H](CO)O2)cc1I` [Idoxuridine] as the compound, how does the relative cell viability read?
**A.** 1.17 ± 0.086

**Q.** Which relative cell viability does the source give for `CN1CCN(c2ccc3nc(-c4c(N)c5c(F)cccc5[nH]c4=O)[nH]c3c2)CC1` [Dovitinib (TKI-258, CHIR-258)] here?
**A.** 0.9943 ± 0.0019

**Q.** Which relative cell viability does the source give for `CN1CCN(c2ccc3nc(-c4c(N)c5c(F)cccc5[nH]c4=O)[nH]c3c2)CC1` [Dovitinib (TKI258) Lactate] here?
**A.** 1.18 ± 0.11

**Q.** `CN1CCN(c2ccc3nc(-c4c(N)c5c(F)cccc5[nH]c4=O)[nH]c3c2)CC1` [Dovitinib (TKI-258) Dilactic Acid] was tested. Which relative cell viability did it give?
**A.** 0.952 ± 0.059

**Q.** With `C=CCNC1=C2C[C@@H](C)C[C@H](OC)[C@H](O)[C@@H](C)/C=C(\C)[C@H](OC(N)=O)[C@@H](OC)/C=C\C=C(/C)C(=O)NC(=CC1=O)C2=O` [17-AAG (Tanespimycin)] as the compound, how does the relative cell viability read?
**A.** 0.78 ± 0.089

**Q.** `Cc1cccc(N(C)C(=S)Oc2ccc3ccccc3c2)c1` [Tolnaftate] was tested. Which relative cell viability did it give?
**A.** 0.927 ± 0.065

**Q.** How did the relative cell viability turn out when `O=C(O)c1cccnc1` [Nicotinic Acid] was run?
**A.** 1.09 ± 0.1

**Q.** With `CCCCc1oc2ccccc2c1C(=O)c1cc(I)c(OCCN(CC)CC)c(I)c1` [Amiodarone HCl] as the compound, how does the relative cell viability read?
**A.** 0.743 ± 0.0089

**Q.** With `COc1cc2c(NC3CCN(CC4CCCCC4)CC3)nc(N3CCCN(C(C)C)CC3)nc2cc1OCCCN1CCCCC1` as the compound, how does the relative cell viability read?
**A.** 1.13 ± 0.075

**Q.** How did the relative cell viability turn out when `COc1ccc(-c2ccc3cc(C(=O)O)ccc3c2)cc1C12CC3CC(CC(C3)C1)C2` [Adapalene] was run?
**A.** 1.12 ± 0.097

**Q.** Which relative cell viability does the source give for `CC1(C)C=C(CN2C/C(=C\c3ccc(F)cc3)C(=O)/C(=C/c3ccc(F)cc3)C2)C(C)(C)N1O` here?
**A.** 0.216 ± 0.0066

**Q.** For `NNC(=O)c1ccncc1` [Isoniazid], which relative cell viability is on record?
**A.** 1.1 ± 0.14

**Q.** For `O=C(Nc1ncc(SCCN2CCCC2)s1)[C@]1(c2ccc(S(=O)(=O)C3CC3)cc2)C[C@H]1C1CCCCC1`, which relative cell viability is on record?
**A.** 0.656 ± 0.067

**Q.** For `O=C(O)CCCN1CCC(O[C@@H](c2ccc(Cl)cc2)c2ccccn2)CC1` [Bepotastine Besilate], which relative cell viability is on record?
**A.** 1.11 ± 0.17

**Q.** How did the relative cell viability turn out when `CCC(=O)OCC(=O)[C@@]1(OC(=O)CC)[C@@H](C)C[C@H]2[C@@H]3CCC4=CC(=O)C=C[C@]4(C)[C@@]3(F)[C@@H](O)C[C@@]21C` [Betamethasone Dipropionate] was run?
**A.** 1.05 ± 0.052

**Q.** Which relative cell viability does the source give for `C[C@H]1C[C@H]2[C@@H]3CCC4=CC(=O)C=C[C@]4(C)[C@H]3C(=O)C[C@]2(C)[C@@]1(O)C(=O)CO` [Meprednisone] here?
**A.** 1.02 ± 0.055

**Q.** With `Cc1ccc(S(=O)(=O)OCC(=O)Nc2ccc(C(=O)O)c(O)c2)cc1` as the compound, how does the relative cell viability read?
**A.** 1.18 ± 0.055
